The results in this text go back to publication PMC9911399, “Two distinct binding modes provide the RNA-binding protein RbFox with extraordinary sequence specificity”.

To fix the notation:
T1: RBFOX1 RRM RbFoxmut (Fox-RRM*) (Homo sapiens, UniProt Q9NWB1 109-208, R118D;E147R;N151S;E152T)
T1 sequence: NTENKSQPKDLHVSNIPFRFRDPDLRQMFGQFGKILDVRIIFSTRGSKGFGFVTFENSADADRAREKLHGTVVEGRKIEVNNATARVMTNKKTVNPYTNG

B1: CAAAUAC (DNA:RNA)
RNA: GGGAGACCGGAAUUCAGAUUGUCCCAAAUACUUAAAUCCCGUCGUAGCCACCA
DNA 1: CAATCTGAATTCCGGTCTCCC
DNA 2: TGGTGGCTACGACGGGATT
B2: GUAUAUG (DNA:RNA)
RNA: B1 RNA with C25G, A26U, A28U, U29A, A30U, C31G
DNA 1: CAATCTGAATTCCGGTCTCCC
DNA 2: TGGTGGCTACGACGGGATT
B3: ACUUUGU (DNA:RNA)
RNA: B1 RNA with C25A, A26C, A27U, A28U, A30G, C31U
DNA 1: CAATCTGAATTCCGGTCTCCC
DNA 2: TGGTGGCTACGACGGGATT
B4: GUGAACC (DNA:RNA)
RNA: B1 RNA with C25G, A26U, A27G, U29A, A30C
DNA 1: CAATCTGAATTCCGGTCTCCC
DNA 2: TGGTGGCTACGACGGGATT
B5: UGUCCAU (DNA:RNA)
RNA: B1 RNA with C25U, A26G, A27U, A28C, U29C, C31U
DNA 1: CAATCTGAATTCCGGTCTCCC
DNA 2: TGGTGGCTACGACGGGATT
B6: GAUUUUC (DNA:RNA)
RNA: B1 RNA with C25G, A27U, A28U, A30U
DNA 1: CAATCTGAATTCCGGTCTCCC
DNA 2: TGGTGGCTACGACGGGATT
B7: UGAAAAU (DNA:RNA)
RNA: B1 RNA with C25U, A26G, U29A, C31U
DNA 1: CAATCTGAATTCCGGTCTCCC
DNA 2: TGGTGGCTACGACGGGATT
B8: AUGGGUU (DNA:RNA)
RNA: GGGAGACCGGAAUUCAGAUUGUCCAUGGGUUUUAAAUCCCGUCGUAGCCACCA
DNA 1: CAATCTGAATTCCGGTCTCCC
DNA 2: TGGTGGCTACGACGGGATT
B9: CAACUUA (DNA:RNA)
RNA: B1 RNA with A28C, A30U, C31A
DNA 1: CAATCTGAATTCCGGTCTCCC
DNA 2: TGGTGGCTACGACGGGATT
B10: AGGAAUC (DNA:RNA)
RNA: B8 RNA with U26G, G28A, G29A, U31C
DNA 1: CAATCTGAATTCCGGTCTCCC
DNA 2: TGGTGGCTACGACGGGATT
B11: CUGGGUU (DNA:RNA)
RNA: B8 RNA with A25C
DNA 1: CAATCTGAATTCCGGTCTCCC
DNA 2: TGGTGGCTACGACGGGATT
B12: UGGCCUG (DNA:RNA)
RNA: B8 RNA with A25U, U26G, G28C, G29C, U31G
DNA 1: CAATCTGAATTCCGGTCTCCC
DNA 2: TGGTGGCTACGACGGGATT
B13: GAGGUAU (DNA:RNA)
RNA: B8 RNA with A25G, U26A, G29U, U30A
DNA 1: CAATCTGAATTCCGGTCTCCC
DNA 2: TGGTGGCTACGACGGGATT
B14: GCCUCGA (DNA:RNA)
RNA: GGGAGACCGGAAUUCAGAUUGUCCGCCUCGAUUAAAUCCCGUCGUAGCCACCA
DNA 1: CAATCTGAATTCCGGTCTCCC
DNA 2: TGGTGGCTACGACGGGATT
B15: ACAAGAC (DNA:RNA)
RNA: B1 RNA with C25A, A26C, U29G
DNA 1: CAATCTGAATTCCGGTCTCCC
DNA 2: TGGTGGCTACGACGGGATT
B16: AGACUGA (DNA:RNA)
RNA: B1 RNA with C25A, A26G, A28C, A30G, C31A
DNA 1: CAATCTGAATTCCGGTCTCCC
DNA 2: TGGTGGCTACGACGGGATT
B17: UUCAUUG (DNA:RNA)
RNA: B8 RNA with A25U, G27C, G28A, G29U, U31G
DNA 1: CAATCTGAATTCCGGTCTCCC
DNA 2: TGGTGGCTACGACGGGATT
B18: UGUUUCU (DNA:RNA)
RNA: B8 RNA with A25U, U26G, G27U, G28U, G29U, U30C
DNA 1: CAATCTGAATTCCGGTCTCCC
DNA 2: TGGTGGCTACGACGGGATT
B19: AGCGAUU (DNA:RNA)
RNA: B8 RNA with U26G, G27C, G29A
DNA 1: CAATCTGAATTCCGGTCTCCC
DNA 2: TGGTGGCTACGACGGGATT
B20: GUUACGG (DNA:RNA)
RNA: B14 RNA with C26U, C27U, U28A, A31G
DNA 1: CAATCTGAATTCCGGTCTCCC
DNA 2: TGGTGGCTACGACGGGATT
B21: CCAAACG (DNA:RNA)
RNA: B1 RNA with A26C, U29A, A30C, C31G
DNA 1: CAATCTGAATTCCGGTCTCCC
DNA 2: TGGTGGCTACGACGGGATT
B22: CCGCGCC (DNA:RNA)
RNA: B8 RNA with A25C, U26C, G28C, U30C, U31C
DNA 1: CAATCTGAATTCCGGTCTCCC
DNA 2: TGGTGGCTACGACGGGATT
B23: CAGACAU (DNA:RNA)
RNA: B1 RNA with A27G, U29C, C31U
DNA 1: CAATCTGAATTCCGGTCTCCC
DNA 2: TGGTGGCTACGACGGGATT
B24: UUGUGCG (DNA:RNA)
RNA: B8 RNA with A25U, G28U, U30C, U31G
DNA 1: CAATCTGAATTCCGGTCTCCC
DNA 2: TGGTGGCTACGACGGGATT
B25: GAUAACC (DNA:RNA)
RNA: B1 RNA with C25G, A27U, U29A, A30C
DNA 1: CAATCTGAATTCCGGTCTCCC
DNA 2: TGGTGGCTACGACGGGATT
B26: CGGUAGU (DNA:RNA)
RNA: B8 RNA with A25C, U26G, G28U, G29A, U30G
DNA 1: CAATCTGAATTCCGGTCTCCC
DNA 2: TGGTGGCTACGACGGGATT
B27: AGUGAAU (DNA:RNA)
RNA: B8 RNA with U26G, G27U, G29A, U30A
DNA 1: CAATCTGAATTCCGGTCTCCC
DNA 2: TGGTGGCTACGACGGGATT
B28: GUCGCCC (DNA:RNA)
RNA: B14 RNA with C26U, U28G, G30C, A31C
DNA 1: CAATCTGAATTCCGGTCTCCC
DNA 2: TGGTGGCTACGACGGGATT
B29: GUUUGCC (DNA:RNA)
RNA: B8 RNA with A25G, G27U, G28U, U30C, U31C
DNA 1: CAATCTGAATTCCGGTCTCCC
DNA 2: TGGTGGCTACGACGGGATT
B30: AAAUGUC (DNA:RNA)
RNA: B8 RNA with U26A, G27A, G28U, U31C
DNA 1: CAATCTGAATTCCGGTCTCCC
DNA 2: TGGTGGCTACGACGGGATT
B31: UCACAGG (DNA:RNA)
RNA: B14 RNA with G25U, C27A, U28C, C29A, A31G
DNA 1: CAATCTGAATTCCGGTCTCCC
DNA 2: TGGTGGCTACGACGGGATT

Changes are numbered by the printed parent chain; changes in the protein carry UniProt numbers. The list shows a part of the results.

The target in the test is T1, RBFOX1 RRM RbFoxmut (Fox-RRM*). As to the kind of experiment: EMSA; HiTS-Eq, 1 nM pool, 10 min; buffer printed only for the single-RNA assays: 10 mM Tris pH 7.5, 150 mM NaCl, 3.4 mM EDTA, 0.001% NP-40, 30 C. The following applies: tags: His6 N-terminal (pET28a); label: 5' 32P. The essentials:
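A pool of RNA with 7 randomized nucleotides, 5′-radiolabelled and with DNA-annealed flanks, was equilibrated at 1 nM for 10 min in 50 µL with purified RbFox RRM, wild type or mutant, across increasing protein concentrations. Free RNA was separated by 8% native PAGE, excised, reverse-transcribed, barcoded by PCR and sequenced. Relative association constants were obtained from read-count changes of each RNA species versus the control reaction and normalised to the cognate motif.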
For B1, the binding signal was 0.0909 KA relative to UGCAUGU.

Turning to B2, the binding signal was 0.199 KA relative to UGCAUGU.

Regarding B3, the binding signal was 0.117 KA relative to UGCAUGU.

For the molecule B4, the binding signal was 0.13 KA relative to UGCAUGU.

Take B5: the binding signal was 0.109 KA relative to UGCAUGU.

Turning to B6, the binding signal was 0.0366 KA relative to UGCAUGU.

With B7, the binding signal was 0.0582 KA relative to UGCAUGU.

Regarding B8, the binding signal was 0.143 KA relative to UGCAUGU.

Consider B9, for which the binding signal was 0.121 KA relative to UGCAUGU.

As to B10, the binding signal is 0.261 KA relative to UGCAUGU.

On to B11, for which the binding signal is 0.11 KA relative to UGCAUGU.

Turning to B12, the binding signal was 0.359 KA relative to UGCAUGU.

As for B13, the binding signal was 0.129 KA relative to UGCAUGU.

For B14, the binding signal was 0.197 KA relative to UGCAUGU.

On to B15, for which the binding signal was 0.0628 KA relative to UGCAUGU.

Regarding B16, the binding signal is 0.0992 KA relative to UGCAUGU.

B17: the binding signal was 0.13 KA relative to UGCAUGU.

Regarding B18, the binding signal is 0.134 KA relative to UGCAUGU.

Regarding B19, the binding signal is 0.072 KA relative to UGCAUGU.

For the molecule B20, the binding signal is 0.0691 KA relative to UGCAUGU.

For the molecule B21, the binding signal is 0.138 KA relative to UGCAUGU.

Take B22: the binding signal was 0.184 KA relative to UGCAUGU.

Consider B23, for which the binding signal is 0.0629 KA relative to UGCAUGU.

For B24, the binding signal was 0.274 KA relative to UGCAUGU.

Turning to B25, the binding signal was 0.0699 KA relative to UGCAUGU.

With B26, the binding signal is 0.138 KA relative to UGCAUGU.

Consider B27, for which the binding signal is 0.135 KA relative to UGCAUGU.

Regarding B28, the binding signal was 0.0754 KA relative to UGCAUGU.

Consider B29, for which the binding signal is 0.25 KA relative to UGCAUGU.

For B30, the binding signal is 0.145 KA relative to UGCAUGU.

B31: the binding signal was 0.09 KA relative to UGCAUGU.
